From the BET-seq Pho4 binding data (Le et al. 2018)
This is one part of the list. The energies were worked out here from pooled read counts, against the library average; single values are noisy.

Molecular target: T1, Pho4 (S. cerevisiae) (UniProt P07270)
T1 sequence: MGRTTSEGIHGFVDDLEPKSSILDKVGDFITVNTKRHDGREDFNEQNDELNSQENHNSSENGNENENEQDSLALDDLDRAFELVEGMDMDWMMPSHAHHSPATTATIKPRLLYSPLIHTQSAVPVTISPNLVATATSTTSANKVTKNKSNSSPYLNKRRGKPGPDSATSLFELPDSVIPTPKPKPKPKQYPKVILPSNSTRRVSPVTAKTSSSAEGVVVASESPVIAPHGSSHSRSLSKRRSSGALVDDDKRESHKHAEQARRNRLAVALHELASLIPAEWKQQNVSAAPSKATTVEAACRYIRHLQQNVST
Test: relative binding free energy (BET-seq); higher = weaker binding
Conditions: reference: library average

Sequence | relative binding free energy [kcal/mol]
GGTTGCACGTGTTTTT | 0.07
CTTGGCACGTGTATGT | -0.01
TATTACACGTGTGAGT | 0.13
CGGGTCACGTGTAGTG | 0.1
AGAATCACGTGGTGGT | 0.21
GCTGACACGTGGTTGG | 0.04
GCTTACACGTGGGGAT | -0.06
AGTGGCACGTGTTAGT | -0.19
ATTAACACGTGAGTGT | 0.07
GGTCGCACGTGTTGTA | 0.04
GGGGCCACGTGTAGTG | 0.08
GTTTCCACGTGAAGTG | 0.34
AGTTGCACGTGCGGGC | -0.12
GTGGACACGTGAGGAA | 0.33
ATAGGCACGTGGTGTC | -0.1
GAGTGCACGTGCTTTT | -0.01
TAGCTCACGTGAGAGG | 0.36
TAGGTCACGTGATTGG | 0.15
GGGGACACGTGTCGAG | 0.03
GTAGCCACGTGGTGGC | -0.07
ACAGTCACGTGGTGTG | -0.03
TTGGACACGTGGTTGT | 0.01
GTGACCACGTGGGAGG | -0.25
TGCGTCACGTGGATGT | 0.08
GCTGTCACGTGTCGTT | 0.18
CGGATCACGTGGGTAA | 0.07

Sequence | relative binding free energy [kcal/mol]
TTTCACACGTGTATTG | 0.05
AGTTCCACGTGAAGTG | 0.37
CTGGTCACGTGAGCGT | 0.27
TGGGTCACGTGTGTCA | 0.08
TTGATCACGTGTATGG | 0.16
GGTGTCACGTGACTTA | 0.17
AGTTACACGTGGGATG | 0.17
TTTGCCACGTGCTGTG | -0.15
TGCGTCACGTGGGCCG | -0.11
CAGCGCACGTGGTTGT | -0.07
ATAATCACGTGTGATA | 0.31
GTGATCACGTGAGCTG | 0.34
TTCTTCACGTGTTAGT | 0.27
CTTTACACGTGGTCGG | 0
TGTTACACGTGCTTGT | 0.06
ATCTGCACGTGTATTG | -0.06
GGAGGCACGTGGTGCC | -0.04
GTTCTCACGTGGCTGG | 0.2
GGCTTCACGTGATGTT | 0.52
CTGATCACGTGGTGGT | 0.19
CATTGCACGTGATGAG | 0.12
AGTGTCACGTGTTTCA | 0.12
TAAGCCACGTGTGTTA | 0.05
CTGGTCACGTGTGAAT | 0.19
GGGTGCACGTGCTGTA | -0.11
GGTTACACGTGAGTAT | 0.33

Sequence | relative binding free energy [kcal/mol]
CTGGGCACGTGCGTAG | -0.12
TACGCCACGTGGGGGG | -0.27
GAGGTCACGTGGTTAT | 0.12
CTGGTCACGTGAGAGT | 0.45
TTTTTCACGTGCGGGA | 0.3
AAGAGCACGTGGGGGA | -0.22
TTACTCACGTGGGAAA | 0.36
AAGTTCACGTGGAGTC | 0.39
GATGGCACGTGGTGCG | -0.06
GAGTGCACGTGGTCAG | -0.16
GGGTTCACGTGTTACG | 0.36
GGGGGCACGTGACATG | -0.12
GGTTTCACGTGTGACA | 0.27
GAGTTCACGTGCGTCG | 0.21
CAGGACACGTGGAGGG | 0
AAGCGCACGTGAAGGG | 0.05
GTTTGCACGTGGTGAC | 0.02
GTGATCACGTGTCGTT | 0.03
CGTTGCACGTGTGGGG | 0.01
AGTTTCACGTGGTGAC | 0.23
AACGTCACGTGTAAGG | 0.13
CTGGTCACGTGGTGTT | 0.07
TTGGGCACGTGATGGG | 0.08
TCATGCACGTGGATTA | 0.11
TCTTTCACGTGATTTT | 0.38
GCATACACGTGGGTGT | -0.12

Sequence | relative binding free energy [kcal/mol]
GATTTCACGTGAAGAT | 0.39
TAGTTCACGTGTGCGA | 0.21
TATGGCACGTGTGCGT | -0.13
ACGGTCACGTGGAGAG | 0.2
TTTGGCACGTGCTTAA | -0.2
GTTTGCACGTGTTACA | 0.06
CTGGTCACGTGGTAAT | 0.07
CATTACACGTGTGGTT | 0.09
GGGGTCACGTGGGTTG | 0.06
AGGTTCACGTGTACGG | 0.37
ACGTGCACGTGGGTTG | -0.09
CTGAGCACGTGGGAGG | -0.28
ACGGGCACGTGGGTCT | -0.15
ATGATCACGTGGGCGT | -0.02
AGGGCCACGTGGGTGG | -0.34
TCGGGCACGTGTAATT | 0.05
GAGATCACGTGGAATG | 0.35
TAGGACACGTGGGGTA | -0.05
GGTTTCACGTGTGATT | 0.41
TTTGGCACGTGTGGGT | 0.11
TTCGGCACGTGAGGTA | 0.16
GTGAGCACGTGTTGTG | -0.04
TTTGTCACGTGCGGTT | 0.16
TTGATCACGTGGAGAT | 0.17
TCTGACACGTGGGGCA | -0.02
GGGAGCACGTGATTTA | 0.11

Sequence | relative binding free energy [kcal/mol]
GTAATCACGTGGGGGA | -0.06
AAGAGCACGTGTATGT | 0
TTTAGCACGTGACTTA | 0.06
ATTGTCACGTGAAGGC | 0.3
TATTTCACGTGGTTAG | 0.17
TTGTTCACGTGGATAT | 0.2
GTAGACACGTGGGGTC | -0.14
GTTCTCACGTGCTGGT | 0.21
TTAGTCACGTGAGGTG | 0.23
TGTTACACGTGGTCCG | 0.08
GGCTACACGTGAGTGT | 0.34
AATAGCACGTGGGTGT | -0.15
TATACCACGTGTTTTG | -0.03
GAGTGCACGTGAGATG | 0.21
TGGGACACGTGTTTAG | 0.01
ATTTACACGTGGTTAA | 0.03
TTGCGCACGTGGTGCA | -0.18
TGTAACACGTGGATAG | 0.05
GGGTTCACGTGGAAGG | 0.24
GTGAGCACGTGTGAAG | 0.02
GATGACACGTGTATTA | 0.18
AGGGTCACGTGATGTA | 0.3
TAAGGCACGTGAAAGT | 0.08
TGCAGCACGTGCGTGT | -0.07
TATTTCACGTGCTGTA | 0.28
GATTCCACGTGGTTTG | 0.06

Sequence | relative binding free energy [kcal/mol]
TGGAACACGTGCGTTT | 0.03
AGGATCACGTGGGGTA | 0
GTCGGCACGTGATGCT | 0.15
GTGTTCACGTGTTTTT | 0.32
TAGATCACGTGCTTTG | 0.19
GGATACACGTGATGGG | 0.33
TCGCTCACGTGGTGGT | 0.1
TGAAACACGTGAGTTT | 0.2
TGCAACACGTGTGTGT | 0.08
ATTCACACGTGTTTTT | 0.01
AATCTCACGTGTTGTA | 0.1
TATTACACGTGAGTTT | 0.23
ATGTTCACGTGATACG | 0.24
GTGGGCACGTGTACGG | -0.04
TTGACCACGTGTTGGG | -0.05
AAGGCCACGTGTGCGT | -0.1
GTAGGCACGTGGGCAG | -0.2
TTAGTCACGTGGGTTC | 0.03
ATGTTCACGTGTTGGC | 0.18
CAAGTCACGTGGGTTT | 0.09
GTTGGCACGTGGTGCA | -0.28
AGTATCACGTGCTGAG | 0.16
GGAGGCACGTGGCGCG | -0.22
AACTTCACGTGATTGT | 0.32
TGTGGCACGTGATGGC | -0.05
AGGGTCACGTGAGCAG | 0.07

Sequence | relative binding free energy [kcal/mol]
TTTAGCACGTGAGGCA | 0.21
GTAAACACGTGAGGGG | 0.24
GGGAGCACGTGTGAGC | 0.2
CTTGGCACGTGCTGAG | -0.2
TGGATCACGTGCGTGC | 0.03
AAGCGCACGTGGTATG | -0.22
TTTAGCACGTGGGGGC | -0.12
GGTTACACGTGGGTAA | 0.02
GTATACACGTGGAATG | 0.14
CGTTACACGTGTGGTA | 0.23
ACAGGCACGTGTGTGG | -0.05
TTGGCCACGTGCTGGG | -0.15
TGGACCACGTGTGGGT | -0.01
TTATACACGTGAGGGC | 0.43
AATATCACGTGTTATG | 0.02
TTTATCACGTGGGACA | 0.15
TGAATCACGTGTCTTG | 0.1
TGTCTCACGTGGGTTG | 0.02
ATATGCACGTGGAGAG | 0.07
GGTTCCACGTGTTGAT | 0.14
AGTTACACGTGTTGTA | 0.01
AGGGACACGTGGAGTA | 0.02
GTATGCACGTGTTATC | -0.03
TGCGTCACGTGAGAGT | 0.27
GGGCTCACGTGAATGT | 0.49
GATGGCACGTGAGAAG | 0.12

Sequence | relative binding free energy [kcal/mol]
CCGGGCACGTGGCAGG | -0.17
ATTTACACGTGGGGTA | -0.02
AAGTGCACGTGGAACG | 0.06
AAGTTCACGTGCGGTG | 0.36
TGATTCACGTGGAGGC | 0.23
ACACTCACGTGGGTGG | 0.02
TGCTACACGTGAGGTT | 0.32
GAATCCACGTGGGGTG | -0.07
TGGGTCACGTGATGGA | 0.32
GTCTACACGTGTGGAG | 0.21
GCTATCACGTGAGGGA | 0.39
GGTCGCACGTGGGCAG | -0.25
GTGGGCACGTGTGTAT | 0.01
GTTAGCACGTGTCATG | -0.06
TTTTTCACGTGCGCTT | 0.24
TCGCGCACGTGGTTGG | -0.14
GGGGTCACGTGGAGCT | 0.09
TGGTCCACGTGAATTG | 0.28
AGACGCACGTGGGTTT | -0.21
GGTTGCACGTGACGGG | 0.19
TCGCACACGTGGTGGT | -0.01
GATATCACGTGTATAG | 0.28
TTTTTCACGTGTGGTG | 0.3
CTTTACACGTGTGTAG | -0.07
TAGTTCACGTGTGAGC | 0.33
CTTTTCACGTGCATTT | 0.21

Sequence | relative binding free energy [kcal/mol]
CGTGTCACGTGTGAAT | 0.08
GTTTACACGTGGGACG | 0.14
TGAATCACGTGCGGGT | 0.19
CGGATCACGTGTGATT | 0.33
TGGCGCACGTGTTTAT | -0.09
GGCTACACGTGAAGTG | 0.39
GGACACACGTGGGTTG | 0.01
TTCAGCACGTGGGTAT | -0.18
TGTTTCACGTGGGCAG | 0.16
ATCATCACGTGTGTTG | 0.1
AACATCACGTGGGTGT | 0.04
TTGTCCACGTGGACGG | 0
CGTGGCACGTGTGGGT | -0.12
GGTTGCACGTGTAAGC | 0.12
TGGCGCACGTGTTGTG | -0.2
GTAAGCACGTGCAGGG | -0.12
TTGTTCACGTGAGCAG | 0.52
GTTGCCACGTGTATGG | 0.07
ATTAGCACGTGTTGGG | -0.02
TTCGTCACGTGAGTGT | 0.21
TTGGGCACGTGGAATG | 0
TTTAGCACGTGCTGGA | 0.04
